Drawing on the supplement of paper PMC10670038, this text covers relative cell viability for 48 compounds.

Values joined by “and” are separate entries in the source; they are usually repeats but may differ in a detail not shown here. Equal entries are not always repeated. Structures can show the parent of a compound that is named as a salt. ± gives the standard deviation of the averaged measurements. In all, about 2,000 compounds were measured (“relative cell viability vs DMSO, compound alone”: median about 1.1, lowest 2% from about 0.29 on). The list shows a part of the results.

For the assay, the system named is TE10. Description: relative cell viability vs DMSO, compound alone (fraction); TE10 is an esophageal squamous carcinoma line; higher = less cytotoxic. The conditions noted are these: 2 µM; 48 h. The method, then:
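TE10 ESCC cells (1,000/well, 384-well plates) were treated with Selleck bioactive library compounds at 2 uM alone for 48 h. Viability was read by CellTiter-Glo and expressed relative to DMSO wells. Two technical replicates (A, B).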
`CCC[C@@H]1C[C@@H](C(=O)N[C@@H]([C@H]2O[C@H](SC)[C@H](O)[C@@H](O)[C@H]2O)[C@@H](C)O)N(C)C1` [Lincomycin HCl] yielded a relative cell viability of 1.12 ± 0.073.
Turning to `N#Cc1c(Oc2ccc(F)c(NC(=O)Cc3cccc(C(F)(F)F)c3)c2)ccc2nc(NC(=O)C3CC3)sc12`, the relative cell viability is 0.753 ± 0.017.
On to `O=c1cc[nH]c(=O)[nH]1` [Uracil], for which the relative cell viability amounted to 1.16 ± 0.018.
Then `COc1ccc(-c2cc(=O)c3c(OC)c(OC)c(OC)c(OC)c3o2)cc1OC` [Nobiletin], with 1.13 ± 0.022.
With `Cc1ccc(C(=O)Nc2cccc(C(F)(F)F)c2)cc1Nc1nc(-c2cccnc2)nc2c1cnn2C` the figure was 1.13 ± 0.043; with `Cc1noc(-c2ccc(CSCCC(=O)O)cc2)c1NC(=O)OC(C)c1ccccc1Cl` (stereo not drawn), 1.08 ± 0.064; with `Cc1cccc(-c2nn3c(c2-c2ccnc4ccc(C(N)=O)cc24)CCC3)n1`, 0.829 ± 0.024.
With `CC(C)c1nc(CN(C)C(=O)N[C@@H](CCN2CCOCC2)C(=O)N[C@H](CC[C@H](Cc2ccccc2)NC(=O)OCc2cncs2)Cc2ccccc2)cs1` [Cobicistat (GS-9350)] the figure was 1.11 ± 0.05; with `Cc1cc(C)nc(NS(=O)(=O)c2ccc(NC(=S)NC(=O)COc3ccc(Br)cc3Cl)cc2)n1`, 1.07 ± 0.023.
Consider `O=C(Nc1cccnc1)N1CCC(Cc2cccc(Oc3ccc(C(F)(F)F)cn3)c2)CC1`, for which the relative cell viability was 1.16 ± 0.062.
With `Cc1ccc(CNc2ncnc3ccc(-c4ccc(CO)o4)cc23)o1` the figure was 1.08 ± 0.015; with `CN1C(C(=O)Nc2ccccn2)=C(O)c2sc(Cl)cc2S1(=O)=O` [Lornoxicam], 0.859 ± 0.058; with `CC12CC3CC(C)(C1)CC(N)(C3)C2` [Memantine HCl], 1.1 ± 0.014.
Take `O=C(O)c1ccc(C=C2SC(=S)N(c3cccc(C(F)(F)F)c3)C2=O)cc1`: the relative cell viability was 1.04 ± 0.026.
On to `COc1ccc(-c2cc(=O)c3c(OC)c(OC)c(OC)c(OC)c3o2)cc1` [Tangeretin], for which the relative cell viability was found to be 1.16 ± 0.12.
With `COc1ccc(-c2ccc3cc(C(=O)O)ccc3c2)cc1C12CC3CC(CC(C3)C1)C2` [Adapalene] the figure was 1.21 ± 0.045; with `COc1cc2c(NC3CCN(CC4CCCCC4)CC3)nc(N3CCCN(C(C)C)CC3)nc2cc1OCCCN1CCCCC1`, 1 ± 0.13.
With `CCCCc1oc2ccccc2c1C(=O)c1cc(I)c(OCCN(CC)CC)c(I)c1` [Amiodarone HCl] the figure was 0.9232 ± 0.0053.
As to `O=C(O)c1cccnc1` [Nicotinic Acid], the relative cell viability turned out to be 1.13 ± 0.021.
With `C=CCNC1=C2C[C@@H](C)C[C@H](OC)[C@H](O)[C@@H](C)/C=C(\C)[C@H](OC(N)=O)[C@@H](OC)/C=C\C=C(/C)C(=O)NC(=CC1=O)C2=O` [17-AAG (Tanespimycin)], the relative cell viability was found to be 0.5802 ± 0.0011.
For the compound `Cc1cccc(N(C)C(=S)Oc2ccc3ccccc3c2)c1` [Tolnaftate], the relative cell viability was found to be 0.9946 ± 0.0045.
With `O=c1[nH]c(=O)n([C@H]2C[C@H](O)[C@@H](CO)O2)cc1I` [Idoxuridine] the figure was 1.08 ± 0.029; with `CN1CCN(c2ccc3nc(-c4c(N)c5c(F)cccc5[nH]c4=O)[nH]c3c2)CC1` [Dovitinib (TKI-258, CHIR-258)], 0.967 ± 0.11.
With `CN1CCN(c2ccc3nc(-c4c(N)c5c(F)cccc5[nH]c4=O)[nH]c3c2)CC1` [Dovitinib (TKI-258) Dilactic Acid] the figure was 0.976 ± 0.088.
With `CN1CCN(c2ccc3nc(-c4c(N)c5c(F)cccc5[nH]c4=O)[nH]c3c2)CC1` [Dovitinib (TKI258) Lactate] the figure was 1.02 ± 0.027; with `C[C@H]1C[C@H]2[C@@H]3CCC4=CC(=O)C=C[C@]4(C)[C@H]3C(=O)C[C@]2(C)[C@@]1(O)C(=O)CO` [Meprednisone], 0.927 ± 0.17; with `CCC(=O)OCC(=O)[C@@]1(OC(=O)CC)[C@@H](C)C[C@H]2[C@@H]3CCC4=CC(=O)C=C[C@]4(C)[C@@]3(F)[C@@H](O)C[C@@]21C` [Betamethasone Dipropionate], 0.975 ± 0.02.
Take `Cc1ccc(S(=O)(=O)OCC(=O)Nc2ccc(C(=O)O)c(O)c2)cc1`: the relative cell viability was determined as 1.19 ± 0.077.
With `O=C(O)CCCN1CCC(O[C@@H](c2ccc(Cl)cc2)c2ccccn2)CC1` [Bepotastine Besilate] the figure was 1.11 ± 0.08.
The compound `O=C(Nc1ncc(SCCN2CCCC2)s1)[C@]1(c2ccc(S(=O)(=O)C3CC3)cc2)C[C@H]1C1CCCCC1` had a relative cell viability of 0.896 ± 0.039.
Then `NNC(=O)c1ccncc1` [Isoniazid], with 1.102 ± 0.0026; and `CC1(C)C=C(CN2C/C(=C\c3ccc(F)cc3)C(=O)/C(=C/c3ccc(F)cc3)C2)C(C)(C)N1O`, with 0.8405 ± 0.0057.
Then `CN1CCN(Cc2ccc(-c3cnc4[nH]cc(-c5ccc6[nH]ccc6c5)c4c3)cc2)CC1`, with 1.028 ± 0.0046.
Then `CCOC(=O)C1=C(C)NC(C)=C(C(=O)OC)C1c1cccc(Cl)c1Cl` (stereo not drawn) [Felodipine], with 1.1 ± 0.067; and `CCOC(=O)c1ccc(NC2CCCCC2)c(N)c1` [Ferrostatin-1 (Fer-1)], with 1.08 ± 0.052; and `O=C1c2c(O)ccc(O)c2C(=O)c2c(NCCNCCO)ccc(NCCNCCO)c21` [Mitoxantrone HCl], with 0.606 ± 0.019.
`O=C1c2c(O)ccc(O)c2C(=O)c2c(NCCNCCO)ccc(NCCNCCO)c21` [Mitoxantrone] returned a relative cell viability of 0.415 ± 0.014.
Take `CC1(C)CC[C@]2(NC(=O)C(C)(F)F)CC[C@]3(C)[C@H](C(=O)C=C4[C@@]5(C)C=C(C#N)C(=O)C(C)(C)[C@@H]5CC[C@]43C)[C@@H]2C1` [Omaveloxolone (RTA-408)]: the relative cell viability turned out to be 0.59 ± 0.032.
Then `O=C(NC(Cc1cc(=O)[nH]c2ccccc12)C(=O)O)c1ccc(Cl)cc1` (stereo not drawn) [Rebamipide], with 1.13 ± 0.081; and `COC(=O)/C=C/C(=O)OC` [Dimethyl Fumarate], with 1.1 ± 0.017.
As to `CC(C)c1cc(C(C)C)c(CC(=O)NS(=O)(=O)Oc2c(C(C)C)cccc2C(C)C)c(C(C)C)c1` [Avasimibe], the relative cell viability was determined as 1.12 ± 0.032.
Regarding `CCCCCCCCCCCCCCCc1cccc(O)c1C(=O)O` [Anacardic Acid], the relative cell viability is 1.15 ± 0.032.
Then `O=C(NNc1nc2cc(F)ccc2n2cccc12)c1cnccn1`, with 0.624 ± 0.035.
With `CN(c1ncccc1CNc1nc(Nc2ccc3c(c2)CC(=O)N3)ncc1C(F)(F)F)S(C)(=O)=O` the figure was 0.867 and 1.03 and 1.09.
Then `CCc1ccc(OCc2ccccc2C(=O)Nc2ccc3nc(C)cc(N)c3c2)cc1`, with 0.687 ± 0.079; and `CN(C)CCc1c[nH]c2ccc(CS(=O)(=O)N3CCCC3)cc12` [Almotriptan Malate], with 0.879 ± 0.049; and `Cn1nc(C(C)(C)C)cc1C(=O)N[C@@H](Cc1cccc(Cl)c1)C(=O)NCC#N` [Cathepsin Inhibitor 1], with 0.905 ± 0.12.
With `O=C(Nc1ccccc1)N1CCN(c2nc(-c3ccccc3)ns2)CC1`, the relative cell viability stood at 1.099 ± 0.007.
